From PubChem BioAssay AID485294 (National Center for Advancing Translational Sciences (NCATS), 2010)
The campaign covered roughly 370,000 compounds. About 150 (0.041%) were called active. The shares of active, inactive and inconclusive entries below differ from those in the screen. The call rests on the fitted dose curve; in most records, active means well fitted inhibition curve with a large enough effect; inconclusive means small, poorly fitted or top-dose-only effect; inactive means flat fitted curve, though single readings scatter. No potency is given beside an inconclusive call; the fits are too rough.

Each molecule was assayed against Beta-lactamase (Escherichia coli (strain K12)) (UniProt P00811) (assay: qHTS Inhibitors of AmpC Beta-Lactamase (assay with detergent)). Details: AmpC hydrolysis of nitrocefin, absorbance 480 nm, 0.01% Triton; series mostly up to 114 µM.
UniProt P00811, sequence (P00811 whole entry, looked up): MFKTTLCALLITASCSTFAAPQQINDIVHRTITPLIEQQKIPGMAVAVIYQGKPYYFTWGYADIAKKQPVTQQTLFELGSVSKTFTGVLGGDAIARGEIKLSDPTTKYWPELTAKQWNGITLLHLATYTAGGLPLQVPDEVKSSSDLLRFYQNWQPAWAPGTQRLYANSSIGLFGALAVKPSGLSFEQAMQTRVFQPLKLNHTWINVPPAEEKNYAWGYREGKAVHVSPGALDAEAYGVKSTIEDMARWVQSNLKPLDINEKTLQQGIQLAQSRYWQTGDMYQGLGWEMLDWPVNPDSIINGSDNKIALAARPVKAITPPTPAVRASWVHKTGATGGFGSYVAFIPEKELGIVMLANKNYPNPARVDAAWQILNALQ
In short: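 AmpC (5.3 nM in the dispensed reagent) in 20 mM phosphate pH 7.0 with 0.01% (detergent screen) or 0.0001% Triton X-100 was preincubated with compounds for 15 min at room temperature. Nitrocefin was then added from an 800 uM solution, and hydrolysis was followed at 480 nm.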
Further: nearly all actives have a fitted effect of over 25% in size.
Potency means the concentration at half of the fitted maximal effect; tags describe the fitted curve by direction and shape.

SMILES	Potency
O=C(NC(=S)Nc1cc(Cl)ccc1N1CCOCC1)c1ccccc1[N+](=O)[O-]	inconclusive [inhibitor, full curve]
COc1ccc(-c2noc(C3CC(=O)N(c4ccc(C)c(F)c4)C3)n2)c(OC)c1 (centres undefined)	inactive
Cc1cccc(OCCSc2nc3ccccc3n2CCC(=O)O)c1	inactive
COCCN(C(=O)COC(=O)C12CC3CC(CC(Cl)(C3)C1)C2)c1c(N)n(Cc2ccccc2)c(=O)[nH]c1=O	inconclusive [inhibitor, full curve, poor fit]
O=C(c1cccnc1)N1CCN(C(=O)c2cccs2)CC1	inconclusive [inhibitor, full curve]
COc1ccc(NC(=O)Nc2ccc3c(c2)CCC3)c(OC)c1	inconclusive [inhibitor, full curve, poor fit]
O=C(CCNC(=O)c1ccccc1Cl)NCc1cccnc1	inconclusive [inhibitor, partial curve, poor fit]
N/C(Cc1ccc(Cl)cc1)=N\OC(=O)c1ccc2ccccc2c1	inconclusive [inhibitor, single point]
Cc1cccn2c(=O)c(/C=C(\C#N)C(N)=O)c(N3CCN(Cc4ccc5c(c4)OCO5)CC3)nc12	inconclusive [inhibitor, partial curve, poor fit]
Clc1ccc(-c2nc3ccncc3[nH]2)cc1	inconclusive [inhibitor, full curve, poor fit]
O=C(NCCS(=O)(=O)N1CCN(c2ccc(F)cc2)CC1)c1ccc(Br)o1	inconclusive [inhibitor, partial curve]
CCOc1ccc(OCC)c(NC(=O)CN2CCN(C(=O)c3ccco3)CC2)c1	inconclusive [inhibitor, single point]
COc1ccc(OC)c2c(C)cc(N3CCCN(C)CC3)nc12	inconclusive [inhibitor, full curve, poor fit]
CCOc1ccc(Nc2n[nH]c(=S)s2)cc1	inactive
COc1ccc(C(=O)Nc2cccc(/C=C/c3nc4ccccc4c(=O)[nH]3)c2)cc1	inactive
O=C(c1cc2ccccc2o1)N(Cc1nnc(-c2ccccc2Cl)o1)C1CC1	inconclusive [inhibitor, partial curve, poor fit]
COc1cccc(-n2c(N)c(-c3nc4ccccc4[nH]3)sc2=S)c1	inconclusive [inhibitor, full curve]
CCOC(=O)c1cccc(NC(=O)c2cc3c(Cl)nc4ccc(C)cc4c3s2)c1	inactive
COc1cccc(C(=O)Nc2ccccc2C(=O)OCc2cc(=O)n3nc(C)sc3n2)c1	inactive
Cc1cc(=O)[nH]c(N/N=C/c2cccc(Br)c2)n1	inconclusive [inhibitor, full curve]
Cc1cc(C(=O)O)c(C)n1-c1ccccc1	inconclusive [inhibitor, full curve, poor fit]
CCN(CC)S(=O)(=O)c1ccccc1/C=N\O	inactive

SMILES	Potency
COc1ccccc1CNC(=O)[C@H](C)NC(=O)C1CCN(C(=O)[C@@H](N)CC(C)C)CC1	inconclusive [inhibitor, partial curve]
CCN(CCCNC(=O)CNC(=O)c1nn(-c2ccc(OC)cc2)c(=O)c2ccccc12)c1cccc(C)c1	inconclusive [inhibitor, single point]
COc1ccccc1NC(=O)COc1ccc(CO)cc1Cl	inactive
CCc1nc(N)c(C#N)c(-c2ccc(O)c(OC)c2)c1C	inconclusive [inhibitor, partial curve, poor fit]
CCc1ccccc1NC(=O)CSC1=C(C#N)C(c2ccc(O)c(OC)c2)C2=C(CCCC2=O)N1 (centres undefined)	inactive
Cn1c2cc(Br)sc2c2cnn(Cc3ccc(F)cc3F)c(=O)c21	inconclusive [inhibitor, full curve, poor fit]
CC(=O)OC[C@H]1O[C@H](C/C=N/OC[C@@H](O)[C@H]2O[C@@H]3OC(C)(C)O[C@@H]3[C@H]2O)C=C[C@@H]1OC(C)=O	inconclusive [inhibitor, full curve]
Cc1cc(C)n(-c2nc3ccccc3nc2Nc2cccc(C(F)(F)F)c2)n1	inactive
Cn1nnnc1SCC(=O)Nc1cc(C(F)(F)F)ccc1N1CCOCC1	inconclusive [inhibitor, full curve, poor fit]
CC(=O)N1CCC(C(=O)c2ccc(Cl)cc2)CC1	inactive
COCCn1c(Cc2ccccc2)nnc1SCC(=O)NC(C)(C)C	inconclusive [inhibitor, partial curve]
COc1ccc(-c2nnc(Nc3ccc(OCC(N)=O)cc3)c3ccccc23)cc1	inactive
CCOc1ccc(/C=N/NC(=O)C2CC2)cc1OC	inconclusive [inhibitor, full curve, poor fit]
COc1ccc(-c2nnn(CC(=O)Nc3ccc4c(c3)OCCO4)n2)cc1OC	inconclusive [inhibitor, full curve]
O=C(CCc1ccccc1)Nc1ccc(S(=O)(=O)N2CCOCC2)cc1	inactive
CC(C)CC(=O)NCCNC(=O)c1cc(OCC(F)(F)F)ccc1OCC(F)(F)F	inactive
CCOCCCNCc1ccc(OCc2ccccc2Cl)cc1	inconclusive [inhibitor, single point]
Cc1ccc(NC(=O)C(=O)NCC(c2cccnc2)N2CCN(C)CC2)cc1C (centres undefined)	inactive
O=C(CSc1nnc(C2CCCCC2)n1-c1ccccc1)NCc1ccco1	inconclusive [inhibitor, full curve, poor fit]
COc1ccc(-c2sc(Nc3ccccc3)n[n+]2-c2ccccc2)cc1Br	inconclusive [inhibitor, full curve]
COc1cc(C(=O)NC(=S)NC(C)C)cc(OC)c1OC	inconclusive [inhibitor, partial curve, poor fit]
O=C(c1ccc(S(=O)(=O)c2ccccc2)cc1)N1CCc2ccccc2C1	inactive
